Results taken from the supplement of paper PMC8728848.
This is one part of the list.

Columns and labels:
Assay in all cases: glycan array binding signal (z-score within array); higher = stronger binding
Conditions in all cases: glycan notation: IUPAC condensed, linker removed
[1] = biological target: Gal(b1-4)GlcNAc(b1-3)Gal(b1-4)GlcNAc(b1-6)[Gal(b1-3)]GalNAc
Summary of the method: (§1)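 The binding signal is a Z-score computed within each array and averaged over linkers. Arrays of the same protein sequence at different concentrations or buffers were also averaged together. Data originate from 3228 arrays in the Consortium for Functional Glycomics database, kept only where the protein sequence was available.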

[2] = biological target: Gal(b1-4)GlcNAc(b1-3)Gal(b1-4)[Fuc(a1-3)]GlcNAc(b1-3)Gal(b1-4)[Fuc(a1-3)]GlcNAc
Summary of the method: as §1

[3] = biological target: Gal(b1-4)GlcNAc(b1-3)GalNAc
Summary of the method: as §1

[4] = biological target: Gal(b1-4)GlcNAc(b1-3)[Fuc(a1-3)GlcNAc(b1-6)]Gal(b1-4)Glc
Summary of the method: as §1

[5] = biological target: Gal(b1-4)GlcNAc(b1-3)[Gal(b1-4)GlcNAc(b1-6)]Gal(b1-4)GlcNAc
Summary of the method: as §1

[6] = biological target: Gal(b1-4)GlcNAc(b1-3)[GlcNAc(b1-6)]Gal(b1-4)GlcNAc
Summary of the method: as §1

[7] = biological target: Gal(b1-4)GlcNAc(b1-6)Gal(b1-4)GlcNAc
Summary of the method: as §1

[8] = biological target: Gal(b1-4)GlcNAc(b1-6)GalNAc
Summary of the method: as §1

[9] = biological target: Gal(b1-4)GlcNAc(b1-6)[Gal(b1-3)]GalNAc
Summary of the method: as §1

[10] = biological target: Gal(b1-4)GlcNAc(b1-6)[Gal(b1-4)GlcNAc(b1-3)]GalNAc
Summary of the method: as §1

Gal(b1-4)GlcNAc6P = biological target: Gal(b1-4)GlcNAc6P
Summary of the method: as §1

Gal(b1-6)Gal = biological target: Gal(b1-6)Gal
Summary of the method: as §1

Gal3S(b1-3)GalNAc = biological target: Gal3S(b1-3)GalNAc
Summary of the method: as §1

Gal3S(b1-3)GlcNAc = biological target: Gal3S(b1-3)GlcNAc
Summary of the method: as §1

[11] = biological target: Gal3S(b1-3)[Fuc(a1-4)]GlcNAc
Summary of the method: as §1

Gal3S(b1-4)Glc = biological target: Gal3S(b1-4)Glc
Summary of the method: as §1

Gal3S(b1-4)Glc6S = biological target: Gal3S(b1-4)Glc6S
Summary of the method: as §1

Gal3S(b1-4)GlcNAc = biological target: Gal3S(b1-4)GlcNAc
Summary of the method: as §1

[12] = biological target: Gal3S(b1-4)[Fuc(a1-3)]Glc6S
Summary of the method: as §1

[13] = biological target: Gal3S(b1-4)[Fuc(a1-3)]GlcNAc
Summary of the method: as §1

[14] = biological target: Gal3S(b1-4)[Fuc(a1-3)]GlcNAc6S
Summary of the method: as §1

Gal3S4S(b1-4)GlcNAc = biological target: Gal3S4S(b1-4)GlcNAc
Summary of the method: as §1

Gal3S6S(b1-4)GlcNAc = biological target: Gal3S6S(b1-4)GlcNAc
Summary of the method: as §1

Gal3S6S(b1-4)GlcNAc6S = biological target: Gal3S6S(b1-4)GlcNAc6S
Summary of the method: as §1

Gal4S(b1-4)GlcNAc = biological target: Gal4S(b1-4)GlcNAc
Summary of the method: as §1

Gal4S6S(b1-4)GlcNAc = biological target: Gal4S6S(b1-4)GlcNAc
Summary of the method: as §1

Gal6P(b1-4)GlcNAc = biological target: Gal6P(b1-4)GlcNAc
Summary of the method: as §1

Gal6S(b1-3)GlcNAc = biological target: Gal6S(b1-3)GlcNAc
Summary of the method: as §1

Gal6S(b1-3)GlcNAc6S = biological target: Gal6S(b1-3)GlcNAc6S
Summary of the method: as §1

Gal6S(b1-4)Glc = biological target: Gal6S(b1-4)Glc
Summary of the method: as §1

Gal6S(b1-4)Glc6S = biological target: Gal6S(b1-4)Glc6S
Summary of the method: as §1

Gal6S(b1-4)GlcNAc = biological target: Gal6S(b1-4)GlcNAc
Summary of the method: as §1

Gal6S(b1-4)GlcNAc6S = biological target: Gal6S(b1-4)GlcNAc6S
Summary of the method: as §1

GalNAc(a1-3)Gal = biological target: GalNAc(a1-3)Gal
Summary of the method: as §1

GalNAc(a1-3)GalNAc = biological target: GalNAc(a1-3)GalNAc
Summary of the method: as §1

[15] = biological target: GalNAc(a1-3)GalNAc(b1-3)Gal(a1-4)Gal(b1-4)Glc
Summary of the method: as §1

[16] = biological target: GalNAc(a1-3)GalNAc(b1-3)Gal(a1-4)Gal(b1-4)GlcNAc
Summary of the method: as §1

GalNAc(b1-3)Gal = biological target: GalNAc(b1-3)Gal
Summary of the method: as §1

[17] = biological target: GalNAc(b1-3)Gal(a1-4)Gal(b1-4)GlcNAc
Summary of the method: as §1

[18] = biological target: GalNAc(b1-3)Gal(a1-4)Gal(b1-4)GlcNAc(b1-3)Gal(b1-4)Glc
Summary of the method: as §1

[19] = biological target: GalNAc(b1-3)Gal(a1-6)Gal(b1-4)Glc
Summary of the method: as §1

GalNAc(b1-3)GalNAc = biological target: GalNAc(b1-3)GalNAc
Summary of the method: as §1

GalNAc(b1-3)GlcNAc = biological target: GalNAc(b1-3)GlcNAc
Summary of the method: as §1

GalNAc(b1-4)Gal(b1-4)Glc = biological target: GalNAc(b1-4)Gal(b1-4)Glc
Summary of the method: as §1

GalNAc(b1-4)GlcNAc = biological target: GalNAc(b1-4)GlcNAc
Summary of the method: as §1

B1: Pwp5 ND (Candida glabrata) (protein)
chain: MGSSHHHHHHSSGLVPRGSHMASANPVPLTNVCYFPEEYPRQAGFRAITAGLASTILQGSVDELLNYSGLSSLTTQQTTTTTPNFQLPTLPLPTNVYGLTVVPLYLLVQLQGYFVPPVSGQYTFSLENTNDAAIIFFGNPSAFPCGDLSAWPQASADDITVTDGTFPSRTLFLKAGVAYPMRISYYNSLGSGNLAVSFTDPGGTKRTNWNGYIWRYNSCSTCTYT
glycan array binding signal (z-score) [1]: -0.326
glycan array binding signal (z-score) [2]: -0.559
glycan array binding signal (z-score) [3]: -0.549
glycan array binding signal (z-score) [4]: -0.468
glycan array binding signal (z-score) [5]: 1.28
glycan array binding signal (z-score) [6]: 0.024
glycan array binding signal (z-score) [7]: -0.421
glycan array binding signal (z-score) [8]: 0.045
glycan array binding signal (z-score) [9]: 1.12
glycan array binding signal (z-score) [10]: -0.249
glycan array binding signal (z-score) (Gal(b1-4)GlcNAc6P): 0.563
glycan array binding signal (z-score) (Gal(b1-6)Gal): -0.403
glycan array binding signal (z-score) (Gal3S(b1-3)GalNAc): -0.627
glycan array binding signal (z-score) (Gal3S(b1-3)GlcNAc): -0.462
glycan array binding signal (z-score) [11]: -0.083
glycan array binding signal (z-score) (Gal3S(b1-4)Glc): -0.405
glycan array binding signal (z-score) (Gal3S(b1-4)Glc6S): -0.422
glycan array binding signal (z-score) (Gal3S(b1-4)GlcNAc): -0.629
glycan array binding signal (z-score) [12]: 0.183
glycan array binding signal (z-score) [13]: -0.532
glycan array binding signal (z-score) [14]: -0.523
glycan array binding signal (z-score) (Gal3S4S(b1-4)GlcNAc): -0.481
glycan array binding signal (z-score) (Gal3S6S(b1-4)GlcNAc): -0.167
glycan array binding signal (z-score) (Gal3S6S(b1-4)GlcNAc6S): -0.375
glycan array binding signal (z-score) (Gal4S(b1-4)GlcNAc): -0.498
glycan array binding signal (z-score) (Gal4S6S(b1-4)GlcNAc): -0.517
glycan array binding signal (z-score) (Gal6P(b1-4)GlcNAc): -0.162
glycan array binding signal (z-score) (Gal6S(b1-3)GlcNAc): -0.366
glycan array binding signal (z-score) (Gal6S(b1-3)GlcNAc6S): 0.348
glycan array binding signal (z-score) (Gal6S(b1-4)Glc): -0.509
glycan array binding signal (z-score) (Gal6S(b1-4)Glc6S): -0.508
glycan array binding signal (z-score) (Gal6S(b1-4)GlcNAc): -0.536
glycan array binding signal (z-score) (Gal6S(b1-4)GlcNAc6S): -0.261
glycan array binding signal (z-score) (GalNAc(a1-3)Gal): -0.724
glycan array binding signal (z-score) (GalNAc(a1-3)GalNAc): -0.301
glycan array binding signal (z-score) [15]: -0.548
glycan array binding signal (z-score) [16]: -0.5
glycan array binding signal (z-score) (GalNAc(b1-3)Gal): -0.314
glycan array binding signal (z-score) [17]: -0.528
glycan array binding signal (z-score) [18]: -0.591
glycan array binding signal (z-score) [19]: -0.662
glycan array binding signal (z-score) (GalNAc(b1-3)GalNAc): -0.474
glycan array binding signal (z-score) (GalNAc(b1-3)GlcNAc): 1.6
glycan array binding signal (z-score) (GalNAc(b1-4)Gal(b1-4)Glc): 0.779
glycan array binding signal (z-score) (GalNAc(b1-4)GlcNAc): 1.64
